{"source": "the supplement of paper PMC10126150", "note": "Sequences with one replicate were seen in a single cluster, so their values are uncertain.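 Also: ATP exposure 15 min at 22 °C before imaging.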"}
{"system": "ATP", "test": "switch fluorescence ratio, 500 uM ATP over buffer (Cy3 cluster intensity, sum of 5 cycles each) (fold (ratio)); higher = stronger signal-on switching upon ATP binding; sequences stand for … in TCGTCGGCAGCGTCAGATGTGTATAAGAGACAGTTTTTTTTTTTTTTTTTTTTTTTTT…TC", "conditions": "aptamer strand: ATP DNA aptamer (quencher-CACCTGGGGGAGTATTGCGGAGGAAGG + anchor), 100 nM annealed; ATP concentration: 500 uM; one replicate", "outline": "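Imaging in selection buffer was followed by imaging after 15 min with 500 uM ATP at 22 °C, for Cy3-labelled switching-strand clusters annealed to 100 nM quencher-labelled ATP aptamer on a modified Illumina MiSeq flow-cell. Five of these buffer/ATP cycles ran, separated by NaOH stripping and re-annealing. The fluorescence ratio per cluster is summed target-cycle over summed buffer-cycle Cy3 intensity, averaged per switch-domain sequence; clusters outside 100-1000 RFU were removed.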"}
{"sequence": "GCACGAACGC", "switch fluorescence ratio": 1.62}
{"sequence": "GCACGAATCC", "switch fluorescence ratio": 1.12}
{"sequence": "GCACGGCTCT", "switch fluorescence ratio": 0.985}
{"sequence": "GCACGGTCGC", "switch fluorescence ratio": 1.02}
{"sequence": "GCACGGTTCG", "switch fluorescence ratio": 0.975}
{"sequence": "GCACGTGCGG", "switch fluorescence ratio": 0.961}
{"sequence": "GCACGTTCAC", "switch fluorescence ratio": 1.46}
{"sequence": "GCACTAACAA", "switch fluorescence ratio": 1.11}
{"sequence": "GCACTAGAGT", "switch fluorescence ratio": 1.04}
{"sequence": "GCACTAGATA", "switch fluorescence ratio": 1.03}
{"sequence": "GCACTCACAT", "switch fluorescence ratio": 1.27}
{"sequence": "GCACTCCACA", "switch fluorescence ratio": 1.39}
{"sequence": "GCACTGACGG", "switch fluorescence ratio": 1.69}
{"sequence": "GCAGAAAGAT", "switch fluorescence ratio": 0.987}
{"sequence": "GCAGAAATGA", "switch fluorescence ratio": 1.02}
{"sequence": "GCAGAACTTC", "switch fluorescence ratio": 1.02}
{"sequence": "GCAGAAGTA", "switch fluorescence ratio": 1.01}
{"sequence": "GCAGACGCGA", "switch fluorescence ratio": 1.62}
{"sequence": "GCAGATTCCG", "switch fluorescence ratio": 1.01}
{"sequence": "GCAGCAAACG", "switch fluorescence ratio": 2.04}
{"sequence": "GCAGCAAGGA", "switch fluorescence ratio": 3.67}
{"sequence": "GCAGCACCTA", "switch fluorescence ratio": 1}
{"sequence": "GCAGCATACA", "switch fluorescence ratio": 2.53}
{"sequence": "GCAGCCGACC", "switch fluorescence ratio": 1.67}
{"sequence": "GCAGCCTATT", "switch fluorescence ratio": 1.38}
{"sequence": "GCAGGAACGC", "switch fluorescence ratio": 0.885}
{"sequence": "GCAGGATGGA", "switch fluorescence ratio": 1.04}
{"sequence": "GCAGGCGAAT", "switch fluorescence ratio": 0.983}
{"sequence": "GCAGGTCATT", "switch fluorescence ratio": 0.932}
{"sequence": "GCAGGTGCTC", "switch fluorescence ratio": 1.54}
{"sequence": "GCAGGTGGCC", "switch fluorescence ratio": 1.04}
{"sequence": "GCAGGTGGTC", "switch fluorescence ratio": 0.979}
{"sequence": "GCAGGTTAGG", "switch fluorescence ratio": 1}
{"sequence": "GCAGTATGTA", "switch fluorescence ratio": 1.01}
{"sequence": "GCAGTCACGG", "switch fluorescence ratio": 1.04}
{"sequence": "GCAGTCATAA", "switch fluorescence ratio": 1.04}
{"sequence": "GCAGTCCCGA", "switch fluorescence ratio": 1.04}
{"sequence": "GCAGTCGATG", "switch fluorescence ratio": 1.04}
{"sequence": "GCAGTCTG", "switch fluorescence ratio": 0.946}
{"sequence": "GCAGTGCCGC", "switch fluorescence ratio": 0.979}
{"sequence": "GCAGTGTGAC", "switch fluorescence ratio": 1.05}
{"sequence": "GCAGTGTTTG", "switch fluorescence ratio": 1}
{"sequence": "GCAGTTAAG", "switch fluorescence ratio": 0.934}
{"sequence": "GCAGTTACGA", "switch fluorescence ratio": 1.41}
{"sequence": "GCAGTTGAAT", "switch fluorescence ratio": 1.03}
{"sequence": "GCAGTTTCTG", "switch fluorescence ratio": 0.971}
{"sequence": "GCAGTTTGTA", "switch fluorescence ratio": 0.993}
{"sequence": "GCATAAATTG", "switch fluorescence ratio": 1.02}
{"sequence": "GCATAGTGA", "switch fluorescence ratio": 0.948}
{"sequence": "GCATATAGTG", "switch fluorescence ratio": 1.01}
{"sequence": "GCATCAAAAG", "switch fluorescence ratio": 1.04}
{"sequence": "GCATCAACTA", "switch fluorescence ratio": 1.01}
{"sequence": "GCATCATGA", "switch fluorescence ratio": 0.961}
{"sequence": "GCATCCAACG", "switch fluorescence ratio": 1.05}
{"sequence": "GCATCGGTGG", "switch fluorescence ratio": 0.937}
{"sequence": "GCATGAGGTA", "switch fluorescence ratio": 0.96}
{"sequence": "GCATGCCCCG", "switch fluorescence ratio": 0.976}
{"sequence": "GCATGCGTCG", "switch fluorescence ratio": 1.01}
{"sequence": "GCATGCGTGC", "switch fluorescence ratio": 1.05}
{"sequence": "GCATGCTCTT", "switch fluorescence ratio": 1.05}
{"sequence": "GCATGGACGG", "switch fluorescence ratio": 1.02}
{"sequence": "GCATGGCCTC", "switch fluorescence ratio": 1.05}
{"sequence": "GCATGGCCTT", "switch fluorescence ratio": 1.02}
{"sequence": "GCATGGGTCA", "switch fluorescence ratio": 0.98}
{"sequence": "GCATGTGGCG", "switch fluorescence ratio": 0.986}
{"sequence": "GCATTACTAT", "switch fluorescence ratio": 1.19}
{"sequence": "GCATTATCGT", "switch fluorescence ratio": 0.982}
{"sequence": "GCATTATCTT", "switch fluorescence ratio": 1.06}
{"sequence": "GCATTCAAG", "switch fluorescence ratio": 0.986}
{"sequence": "GCATTCATCT", "switch fluorescence ratio": 1.02}
{"sequence": "GCATTGAATA", "switch fluorescence ratio": 0.956}
{"sequence": "GCATTGATGA", "switch fluorescence ratio": 1.02}
{"sequence": "GCATTTAAAG", "switch fluorescence ratio": 1.01}
{"sequence": "GCATTTGGAA", "switch fluorescence ratio": 0.969}
{"sequence": "GCATTTTACT", "switch fluorescence ratio": 1.08}
{"sequence": "GCATTTTGGC", "switch fluorescence ratio": 0.952}
{"sequence": "GCCAAAAGCG", "switch fluorescence ratio": 1.05}
{"sequence": "GCCAAACAT", "switch fluorescence ratio": 1.02}
{"sequence": "GCCAACCCCT", "switch fluorescence ratio": 1.07}
{"sequence": "GCCAAGGGAA", "switch fluorescence ratio": 0.993}
{"sequence": "GCCAATTTT", "switch fluorescence ratio": 0.985}
{"sequence": "GCCACCGTGT", "switch fluorescence ratio": 1.03}
{"sequence": "GCCACGATAA", "switch fluorescence ratio": 1.13}
{"sequence": "GCCACTAATT", "switch fluorescence ratio": 1.03}
{"sequence": "GCCACTCAGT", "switch fluorescence ratio": 1.05}
{"sequence": "GCCAGAACTA", "switch fluorescence ratio": 1.02}
{"sequence": "GCCAGAGAGA", "switch fluorescence ratio": 0.987}
{"sequence": "GCCAGCATC", "switch fluorescence ratio": 1.1}
{"sequence": "GCCAGCATGT", "switch fluorescence ratio": 0.993}
{"sequence": "GCCAGCGGTG", "switch fluorescence ratio": 1.07}
{"sequence": "GCCAGGCTGT", "switch fluorescence ratio": 1.03}
{"sequence": "GCCATACC", "switch fluorescence ratio": 1.09}
{"sequence": "GCCATACGGG", "switch fluorescence ratio": 1.04}
{"sequence": "GCCATACGTC", "switch fluorescence ratio": 1.14}
{"sequence": "GCCATATTGT", "switch fluorescence ratio": 1}
{"sequence": "GCCATTCGCA", "switch fluorescence ratio": 1.05}
{"sequence": "GCCATTGAAG", "switch fluorescence ratio": 0.982}
{"sequence": "GCCCACAAAG", "switch fluorescence ratio": 0.973}
{"sequence": "GCCCACCCCT", "switch fluorescence ratio": 1.05}
{"sequence": "GCCCACCCGA", "switch fluorescence ratio": 1.04}
{"sequence": "GCCCAGACGT", "switch fluorescence ratio": 1.03}
